Source: publication PMC4336329 (PLoS ONE, 2015)
About 14,000 (4.5%) of roughly 310,000 compounds showed an effect of 50% or more. Effects have a minus sign here. The list shows a part of the results.

These molecules were tested against human ether-à-go-go-related gene (hERG) potassium channel (human, UniProt Q12809) (assay: primary screen, population patch clamp on CHO cells stably expressing hERG).
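Further: peak tail current of the secondary pulse compared with the same well before compound.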

Chain of human ether-à-go-go-related gene (hERG) potassium channel (Q12809 whole entry, looked up): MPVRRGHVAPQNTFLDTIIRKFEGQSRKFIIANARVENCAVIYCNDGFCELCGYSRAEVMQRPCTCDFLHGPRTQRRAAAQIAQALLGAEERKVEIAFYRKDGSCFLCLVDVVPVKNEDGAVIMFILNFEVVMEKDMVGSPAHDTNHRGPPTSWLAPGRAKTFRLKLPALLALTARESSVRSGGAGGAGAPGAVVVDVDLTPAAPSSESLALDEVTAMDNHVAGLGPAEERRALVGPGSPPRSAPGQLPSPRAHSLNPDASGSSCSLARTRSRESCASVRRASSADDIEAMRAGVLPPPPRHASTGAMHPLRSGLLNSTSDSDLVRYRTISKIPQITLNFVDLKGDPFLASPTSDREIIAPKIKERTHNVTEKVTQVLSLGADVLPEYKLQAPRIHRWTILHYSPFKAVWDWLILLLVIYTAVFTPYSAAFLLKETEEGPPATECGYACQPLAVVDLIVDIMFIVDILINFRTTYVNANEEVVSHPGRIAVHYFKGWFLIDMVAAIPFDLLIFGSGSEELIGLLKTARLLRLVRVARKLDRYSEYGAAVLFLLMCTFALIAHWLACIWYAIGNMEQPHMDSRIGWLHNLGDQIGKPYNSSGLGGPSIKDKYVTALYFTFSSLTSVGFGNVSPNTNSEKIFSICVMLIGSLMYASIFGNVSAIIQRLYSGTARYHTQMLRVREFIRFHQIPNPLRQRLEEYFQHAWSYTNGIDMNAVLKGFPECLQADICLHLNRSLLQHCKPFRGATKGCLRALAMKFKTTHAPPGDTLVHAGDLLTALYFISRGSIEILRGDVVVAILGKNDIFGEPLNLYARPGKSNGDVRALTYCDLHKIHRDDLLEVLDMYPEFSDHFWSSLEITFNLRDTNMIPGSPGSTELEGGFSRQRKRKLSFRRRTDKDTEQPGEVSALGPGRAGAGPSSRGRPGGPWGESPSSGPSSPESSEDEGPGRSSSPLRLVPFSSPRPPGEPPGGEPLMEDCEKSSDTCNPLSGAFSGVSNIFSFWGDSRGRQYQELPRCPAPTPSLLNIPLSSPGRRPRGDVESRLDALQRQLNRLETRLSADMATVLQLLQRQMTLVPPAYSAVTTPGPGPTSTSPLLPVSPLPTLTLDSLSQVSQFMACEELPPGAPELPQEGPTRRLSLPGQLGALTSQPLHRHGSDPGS

Point of comparison: `O=C1C2CCCN2C(=O)N1CCCN1CCN(c2cccc(Cl)c2)CC1` (centres unmarked), “hERG current change (%, negative = inhibition) at 10uM” value -2.8%. Against it:
- CC(C)(C)c1ccc(OCCC(=O)OCC(=O)NCc2ccccc2)cc1 — higher, 3.21%
- COc1ccc(Nc2nc(N3CCCC3)c3ccccc3n2)cc1.Cl — lower, -70%
- O=C(c1cc(-c2cccc(O)c2)on1)N1CCCCC1 — higher, -1.57%
- O=S(=O)(NC1CCCCCCC1)OCC(Cl)(Cl)Cl — lower, -21.4%
- Cc1n[nH]c(C)c1S(=O)(=O)N1CCN(C(=O)c2ccco2)CC1 — higher, 9.7%
- O=C(NCCc1ccccc1)C1CCC(=O)N(Cc2cccc(C(F)(F)F)c2)C1 (centres unmarked) — lower, -14.2%
- O=C(C[n+]1cc(-c2ccc(Br)cc2)n2c1CCCCC2)c1ccccc1.[Br-] — lower, -9.11%
- O=C(OCc1cccc([N+](=O)[O-])c1)c1ccc[nH]c1=O — higher, 17.2%
- Cc1nc(SCC(=O)N2c3ccccc3Sc3ccccc32)n[nH]1 — higher, 9.17%
- Cc1cccc(-c2cc3nc4c(c(NCc5ccco5)n3n2)CCCC4)c1 — lower, -28.4%
- COc1ccc(C(=O)NC(C)c2ccccc2)cc1Br (centres unmarked) — lower, -18%
- Cc1cc(C)nc(Nc2n[nH]c(-c3cccc4ccccc34)n2)n1 — lower, -28.9%
- O=C(CSc1nnc(-c2ccco2)n1Cc1ccccc1)NCc1ccccc1 — lower, -51.8%
- C=CCNC(=O)C1CCN(c2cnccn2)CC1 — higher, 27.8%
- CC(C)(C)C(=O)Nc1cc(S(=O)(=O)Nc2ccc(Cl)cc2)ccc1O — higher, 13.6%
- O=C(Nc1ccc(Cc2ccncc2)cc1)c1cccs1 — lower, -28.2%
- O=C(C1CCCN1S(=O)(=O)c1ccc(Cl)cc1)N1CCOCC1 (centres unmarked) — higher, 4.19%
- CCOC(=O)C1C2C=CC3(CN(CCc4ccccc4)C(=O)C13)O2 (centres unmarked) — higher, 8.39%
- COc1ccccc1CCC(=O)OCC(=O)NC1CCCC1 — higher, 0.299%
- COc1ccc(C[C@H]2CN3C(=NC[C@@H]3C(C)C)N2CCNC(=O)c2ccc(C)c(Br)c2)cc1 — lower, -79%
- Cc1csc2c(N3CCN(C(=O)Nc4ccccc4)CC3)ncnc12 — lower, -25.4%
- NC(=O)CC(NC(=O)c1ccccc1)c1ccc(NCCOc2ccccc2)c([N+](=O)[O-])c1 (centres unmarked) — lower, -4.06%
- O=C(Nc1ccc(N2CCCC2)c(Cl)c1)c1ccc(Br)o1 — lower, -7.29%
- Cc1cccc(C(=O)OCC(=O)c2ccc(CC(=O)N3CCOCC3)s2)c1C — lower, -52.4%
- COc1ccc2nc(NC(=O)CN(C)S(=O)(=O)c3cccs3)sc2c1 — lower, -26%
- CSCCCc1cn([C@@H](CO)C(=O)NCCCCCCCCCCC(=O)N2CCNCC2)nn1 — higher, 19.3%
- COc1cccc(C(=O)NC2CC3CCCC(C2)N3CC(=O)Nc2ccc(N(C)C)cc2)c1 (centres unmarked) — lower, -49.3%
- COc1ccc(Cl)cc1NC(=O)c1c(-c2ccccc2)noc1C — higher, 7.22%
- COc1ccc(C(=O)Nc2cccc(C(=O)N3CCCC3)c2)cc1 — lower, -3.26%
- O=C1NC(=O)C(CC(=O)N(Cc2cccs2)C2(C(=O)NC3CCCCC3)CCCCC2)N1 (centres unmarked) — higher, 9.42%
- CC(=O)NC(Cc1c[nH]c2ccccc12)C(=O)NCCc1ccccc1 (centres unmarked) — higher, 15.4%
- CCN(CC(=O)Nc1ccc2c(c1)OCCO2)C(=O)/C=C/c1cccc(OC)c1OC — higher, -2.25%
- O=C(O)CC(CC(=O)N1CCN(C(=O)c2ccco2)CC1)c1ccccc1 (centres unmarked) — higher, 5.68%
- COc1c2n(C)ccc3c-2n(c(=O)c1=O)c1ccccc31 — higher, 16.8%
- O=C(CN1C(=O)c2ccc([N+](=O)[O-])cc2C1=O)Nc1nccs1 — higher, 21.4%
- COc1ccc(N2C(=O)CN=C2Nc2cccc(C)c2C)cc1OC — higher, 13%
- COc1cc(NC(=O)[C@@H]2CCCN2S(=O)(=O)c2cccc3cccnc23)cc(OC)c1OC — higher, 6.58%
- O=C(NCc1ccco1)C(=S)N1CCCC1 — higher, 14.6%
- Clc1ccc2nc(CSCc3ccccc3)cn2c1 — lower, -6.87%
- COc1ccc(-c2sc(Nc3ccccc3)n[n+]2C)c(C)c1C.[Cl-] — higher, -1.19%
- CC(C)(C)NC(=O)CN(C(=O)c1ccc(Cl)nc1)c1cccc2ccccc12 — lower, -21.4%
- O=C(Cn1c(=O)cnc2ccccc21)N1CCN(S(=O)(=O)c2cccc([N+](=O)[O-])c2)CC1 — higher, 4.07%
- N#Cc1cc(Oc2ccc(Cl)cc2)c(N2CCOCC2)cc1C#N — higher, -1.79%
- COCCNC(=O)CSCc1nc(-c2ccc(SC)cc2)oc1C — lower, -10%
- Cc1cccc(C(=O)N2CCN(CCNC(=O)C(=O)Nc3ccc(F)cc3)CC2)c1 — lower, -38.8%
- Cc1ccc2[nH]c3c(NCc4ccccc4)ncnc3c2c1 — lower, -32.7%
- Cc1c(-c2ccccc2)cn2c1-c1ccc(C)n1CC2 — higher, -0.42%
- O=C(NCC(c1ccco1)N1CCc2ccccc2C1)c1ccc(F)cc1 (centres unmarked) — lower, -10.7%
- CC(=O)c1cccc(NC(=O)c2cc(-c3ccco3)nc3ccccc23)c1 — higher, 11.4%
- C=CCNC(=O)c1sccc1Oc1ccc(F)cc1[N+](=O)[O-] — lower, -15.2%
- O=C(O)c1ccccc1-c1nnc2c(Cl)cc(C(F)(F)F)cn12 — higher, 20.8%
- Cc1cc(C)n(-c2ccc(C(=O)OCC(=O)NCc3ccc(F)cc3)cc2)n1 — higher, 5.33%
- CN(C)S(=O)(=O)c1cccc(NC(=S)N/N=C/C(c2ccccc2)c2ccccc2)c1 — higher, 1.1%
- O=S(=O)(c1ccc2c(c1)OCCO2)N1CCC(O)(c2ccc(Cl)cc2)CC1 — lower, -12.2%
- CCCCCCSC1=C(C#N)C(=O)NC2(CCCCC2)S1 — higher, 16%
- Nc1c(Cl)cc(C2=NCCn3nc4cc([N+](=O)[O-])ccc4c32)cc1Cl — lower, -22.9%
- CN(C)CCCNC(=O)c1ccccn1 — higher, 7.54%
- Cc1onc(-c2c(Cl)cccc2Cl)c1C(=O)N(C)Cc1ccccc1 — higher, 12.7%
- O=C(NNC(=S)Nc1ccccc1)c1ccc2ncccc2c1 — higher, 32.6%
- CCCNC(=O)C(Sc1ccccc1)c1ccccc1 (centres unmarked) — higher, -1.18%
- CCc1ccc2[nH]c(O)c(N=Nc3nc(-c4ccccc4)cs3)c2c1 — higher, 7.61%
- CC(C)C(C(=O)NCC1CCCO1)N(Cc1ccco1)C(=O)CNS(=O)(=O)c1ccccc1 (centres unmarked) — higher, 5.62%
- CN(N)N=Nc1nc2c([nH]1)c(=O)n(C)c(=O)n2C — higher, 0.0258%
- COc1ccc2nc(NC(=O)c3cc(C)oc3C)sc2c1 — higher, 6.94%
- CNCCCOc1cccc(Oc2ccccc2)c1.O=C(O)C(=O)O — lower, -17.2%
- CCN(CC)C(=O)C1CCCN(Cc2ccccc2F)C1 (centres unmarked) — higher, 15.4%
- Nc1cc(=O)[nH]c(SCc2ccc(Cl)cc2Cl)n1 — higher, 22.1%
- CCCN1CCCC(C(=O)c2cc(C)c(OC)c(C)c2)C1 (centres unmarked) — lower, -3.65%
- O=C(Nc1nc2ccsc2c(=O)s1)c1ccco1 — higher, 13.6%
- COc1ccc(S(=O)(=O)N2CCCOC2CNC(=O)C(=O)NCCCn2ccnc2)cc1 (centres unmarked) — lower, -3.17%
- CC(NC(=O)N1CCN(c2ccccc2F)CC1)c1ccc(F)c(F)c1 (centres unmarked) — higher, 18.7%
- CN1CCC(=C(c2ccccc2)c2ccc(Br)cc2)CC1.Cl — lower, -68.3%
- Cc1ccc(CNC(=O)CS(=O)Cc2nc(-c3ccccc3Cl)oc2C)cc1 (centres unmarked) — lower, -13.3%
- Cc1ccc(C(=O)Nc2ccc3c(c2)nc2n3CCSC2)cc1 — lower, -42.6%
- Cc1ccc(NC(=O)CCNS(=O)(=O)c2ccccc2)cc1S(=O)(=O)N1CCOCC1 — higher, 3.54%
- COCCn1c(SCCN2CCCCC2)nc2ccccc2c1=O — lower, -78.4%
- O=C(CSCc1ccc(Cl)cc1Cl)Nc1ccc(O)cc1C(=O)O — higher, 14.2%
- Cc1csc(=O)n1CC(=O)OCC(=O)NC(C)c1ccc(F)cc1 (centres unmarked) — higher, 0.61%
- O=C(CSc1nnnn1C1CCCCC1)NCc1ccccc1 — higher, 0.514%
- CCOC(=O)c1cc2c(OC)ccc(OC)c2n1CC(=O)c1ccccc1 — higher, 0.305%
- CN(C)C(CNC(=O)c1ccc(Cl)c(S(=O)(=O)N2CCCCCC2)c1)c1ccccc1 (centres unmarked) — lower, -67.5%
- COc1ccc(OC)c(S(=O)(=O)N2CCc3ccccc32)c1 — lower, -6.4%
- Cn1c(=O)c2c(SCC(=O)Nc3ccccc3F)nc(-c3ccccc3F)nc2n(C)c1=O — higher, 6.44%
- O=C1CN(C(=O)COC(=O)CNC(=O)c2ccc(Br)o2)c2ccccc2N1 — lower, -32.1%
- Cc1cc(C)cc(NC(=S)NC2CC3CCCC(C2)N3CC(C)C)c1 (centres unmarked) — lower, -7.32%
- COc1cccc(Nc2c(F)c(OC)c(F)c(F)c2C(=O)O)c1 — higher, 16.5%
- Cc1nc(SCC(=O)NC2CCCC2)c2c(C)c(C)sc2n1 — lower, -4.48%
- O=C(CN1CCN(S(=O)(=O)c2ccccc2)CC1)Nc1ccc(Cl)c([N+](=O)[O-])c1 — lower, -65%
